Experimental data from the supplement of paper PMC12217912.
This is one part of the list. The full chains were built here from the parent and the listed change. Inactive controls read about 0.05.

B1: TEV protease; numbered along this chain (parent)
chain: MGESLFKGPRDYNPISSSICHLTNESDGHTTSLYGIGFGPFIITNKHLFRRNNGTLVVQSLHGVFKVKDTTTLQQHLVDGRDMIIIRMPKDFPPFPQKLKFREPQREERICLVTTNFQTKSMSSMVSDTSCTFPSGDGIFWKHWIQTKDGQCGSPLVSTRDGFIVGIHSASNFTNTNNYFTSVPKNFMELLTNQEAQQWVSGWRLNADSVLWGGHKVFMVKPEEPFQPVKEATQL

Variants of: B1
Assay: raw area under fraction-flipped curve 0-4 h after induction (AUC4h, not background-subtracted), DNA-recorder readout of cleavage of the substrate (dimensionless); higher = more cleavage of the substrate by the protease variant
Conditions: temperature: 34 °C; time window: 0-4 h after rhamnose induction
Method: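 In vivo DNA recorder in E. coli TOP10(DE3) ΔrhaA at 34 °C. Each TEVp single-site mutant (parent TEVp 0) is paired with a single-site variant of the 7-mer TEVs (canonical ENLYFQ|S). The substrate sits between flexible linkers in a Bxb1-sfGFP-TEVs-SsrA fusion, so cleavage stabilises Bxb1 and speeds flipping of a recombination array, read by NGS. The value is the raw area under the fraction-flipped curve over 0-4 h after rhamnose induction (AUC4h), with ≥20 reads per time point. It is not background-subtracted; inactive controls average about 0.047.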
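Further: Bxb1 expression induced with 0.2% (w/v) L-rhamnose at OD600 near 0.5, cultures sampled hourly, flipped fraction per protease–substrate barcode pair counted by paired-end Illumina sequencing.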

Variant	area with substrate ENAYFQS	area with substrate ENCYFQS	area with substrate ENDYFQS	area with substrate ENEYFQS	area with substrate ENFYFQS	area with substrate ENGYFQS	area with substrate ENHYFQS	area with substrate ENKYFQS	area with substrate ENMYFQS	area with substrate ENNYFQS	area with substrate ENQYFQS	area with substrate ENRYFQS	area with substrate ENSYFQS	area with substrate ENTYFQS	area with substrate ENVYFQS	area with substrate ENWYFQS	area with substrate ENPYFQS	area with substrate ENYYFQS	area with substrate ENIYFQS
F140V	0.0431	0.0488	0.0665	0.0595	0.0565	0.0375	0.0562	0.0651	0.0642	0.0645	0.0556	0.0449	0.0623	0.0651	0.0489	–	–	–	–
F140W	0.0504	–	–	–	–	–	0.0557	–	–	–	0.0389	–	–	–	–	0.0406	–	–	–
R106S	0.061	0.0542	0.0501	0.0548	0.0749	0.0457	–	–	–	0.0647	0.0606	0.0681	0.0731	0.0649	0.0742	–	0.0517	0.0709	–
F95H	0.0383	0.0615	–	0.064	–	0.0577	0.0564	0.0535	0.0867	0.0613	0.0512	0.0585	0.0697	0.0543	0.0886	–	0.0602	–	0.0891
L99Y	0.0489	0.0661	0.0476	–	0.108	–	0.0614	0.0738	–	0.0828	–	0.0551	0.0632	0.0392	0.0627	–	0.0682	0.0518	0.0831
L99R	0.0561	0.0827	0.0758	0.0686	0.077	0.0859	0.0753	–	0.0801	–	0.0633	–	0.0622	0.0853	0.0524	0.0616	–	–	0.0773
S130V	0.0584	0.0689	0.0621	0.0618	0.067	0.0523	0.0673	0.0663	–	0.0714	0.0645	0.07	0.0591	0.0663	–	0.0558	0.0585	–	0.125
S130E	0.033	–	0.0518	0.0421	0.0729	–	–	–	–	0.0616	–	–	0.0691	–	0.0751	–	–	0.0673	–
G136C	0.075	0.0632	0.0621	0.0617	0.0566	0.0571	0.0553	0.0649	0.0992	0.0688	0.0564	0.0609	0.0675	0.0536	0.076	0.052	0.0633	0.0582	0.132
G136D	0.0668	0.0499	–	0.0619	–	0.0572	0.0592	–	0.0693	0.0471	0.0748	0.0554	0.0667	–	–	–	–	0.0556	–
S127I	0.0666	0.0466	0.0488	–	0.0599	0.0624	0.0489	0.0491	–	0.0583	0.0547	0.0645	0.0576	0.0524	0.0959	0.0081	0.0615	0.0464	–
S127L	0.0636	–	–	–	0.062	0.0753	0.0553	–	0.0897	0.0717	–	0.0624	–	–	0.0797	–	–	0.0758	–
T114R	0.0538	0.06	0.065	–	0.0679	0.0888	0.0408	–	–	0.0684	0.068	0.054	0.0515	0.0613	0.0742	0.0698	0.0593	–	–
S121K	0.0622	0.0761	0.052	0.0619	0.0659	0.0587	0.0527	–	0.0852	0.057	0.0618	0.0672	0.0754	0.0786	0.067	–	–	0.0605	–
S121I	0.0534	0.0705	0.0679	0.0651	0.0596	0.0586	–	0.0496	–	0.0533	0.0649	–	0.0501	0.0486	0.0691	0.0778	–	–	0.104
S135K	0.0618	0.0556	0.0626	0.0673	0.06	–	0.05	–	–	0.074	0.0662	0.0483	0.0064	0.0615	0.0512	0.0769	–	0.0549	0.0632
S135F	0.0684	0.0647	0.0627	0.0615	–	0.0696	0.0597	–	–	0.0653	0.0691	0.0585	0.0796	0.073	0.0644	0.056	0.0569	0.061	–
S135N	0.064	–	0.0675	0.0582	0.0618	0.0637	0.0593	0.0616	–	0.0566	0.0435	0.0568	0.0769	0.0588	0.0673	0.0615	0.0556	0.0605	–
E103T	0.0683	0.062	0.0699	–	0.0693	0.0574	0.0715	0.0571	0.0636	–	0.0603	0.051	0.0418	0.0484	0.0725	–	–	–	0.0937
P94T	0.0747	–	0.0623	–	–	0.0699	–	0.0699	–	0.0651	0.0585	–	0.051	0.0644	0.0889	0.0473	–	–	0.0939
P94W	0.0668	–	0.0634	0.0548	0.0645	0.056	0.052	–	–	0.0665	0.14	0.0627	0.0406	0.0735	0.0819	0.0634	0.0512	0.07	0.0803
I110N	0.0581	0.0345	0.0574	–	0.0961	–	–	0.0454	–	–	0.0572	0.0467	0.0542	0.0556	0.0585	0.0421	–	0.0539	0.0522
I110K	0.0523	0.0535	0.0614	–	0.0496	0.0593	–	0.0629	0.0239	0.0603	0.0582	0.0549	–	0.0599	0.0536	–	0.0603	0.0677	0.0589
V113M	0.0688	0.0682	0.0701	–	–	–	0.058	–	0.0677	0.064	0.0638	0.0488	0.0491	–	0.0782	0.0232	0.0567	0.0342	0.0935
R109L	0.0611	0.0744	0.0575	0.0511	0.0782	–	–	0.0664	0.0751	0.0617	0.061	0.0597	0.0819	0.0447	–	–	–	0.0645	0.0949
